Structures can show the parent of a compound that is named as a salt. ± gives the standard deviation of the averaged measurements. Whole data set: some 1,300 compounds, median “normalised cell viability” near 1, cut for the lowest 2% near 0.15. This is one part of the list.
Test system: V-C8 + BRCA2 (BRCA2-proficient hamster cells)
Assay: normalised cell viability (fraction of plate median); higher = more viable cells (less toxic)
Conditions: 5 µM
How it was run: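 BRCA2-deficient hamster V-C8 cells and BRCA2-restored V-C8 cells were plated in 96-well plates, and library drugs were added 24 h later at 5 μM in 100 μl medium. Exposure lasted 3 days in screen 1 and 6 days in screen 2, next to solvent-only wells. Viability was then read by resazurin assay, median-plate normalised and averaged across triplicate wells.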

Row | Compound | normalised cell viability (treatment time: 3 days) | normalised cell viability (treatment time: 6 days)
1 | CC(=O)NCCCS(=O)(=O)O [Acamprosate calcium] | 1.08 ± 0.015 | 1.12 ± 0.068
2 | CCOC(=O)O[C@]1(C(=O)COC(=O)CC)CC[C@H]2[C@@H]3CCC4=CC(=O)C=C[C@]4(C)[C@H]3[C@@H](O)C[C@@]21C [Prednicarbate] | 0.878 ± 0.049 | 0.96 ± 0.079
3 | CC(C)(C)NCC(O)COc1cccc2c1CCC(=O)N2 (centres undefined) [Carteolol hydrochloride] | 1.06 ± 0.052 | 1.06 ± 0.044
4 | C=C1c2c(Cl)ccc(O)c2C(=O)C2=C(O)[C@]3(O)C(=O)C(C(N)=O)=C(O)[C@@H](N(C)C)[C@@H]3[C@@H](O)[C@H]12.O=C(O)c1cc(S(=O)(=O)O)ccc1O [Meclocycline sulfosalicylate] | 1.02 ± 0.022 | 0.983 ± 0.025
5 | Nc1nc2ccc(OC(F)(F)F)cc2s1 [Riluzole hydrochloride] | 0.998 ± 0.051 | 0.948 ± 0.057
6 | CN1CCC(=C2c3ccccc3CCc3cccnc32)CC1 [Azatadine maleate] | 1.03 ± 0.07 | 1.07 ± 0.096
7 | COc1ccc2c(c1)c(CC(=O)O)c(C)n2C(=O)c1ccc(Cl)cc1 [Indomethacin] | 1 ± 0.019 | 1.01 ± 0.06
8 | C(=C\c1ccccc1)/CN1CCN(C(c2ccccc2)c2ccccc2)CC1 [Cinnarizine] | 1.03 ± 0.036 | 1.02 ± 0.082
9 | O=C(C1CCCCC1)N1CC(=O)N2CCc3ccccc3C2C1 (centres undefined) [Praziquantel] | 1.12 ± 0.04 | 1.03 ± 0.093
10 | CC(=O)c1ccc2c(c1)N(CCCN(C)C)c1ccccc1S2 [Acetopromazine maleate salt] | 1.06 ± 0.031 | 1.04 ± 0.033
11 | CN(C)CCOC(C)(c1ccccc1)c1ccccn1 (centres undefined) [Doxylamine succinate] | 0.988 ± 0.049 | 1.02 ± 0.0094
12 | Oc1c(I)cc(Cl)c2cccnc12 [Clioquinol] | 0.953 ± 0.097 | 0.984 ± 0.061
13 | CC(C)(C#N)c1cc(Cn2cncn2)cc(C(C)(C)C#N)c1 [Anastrozole] | 0.967 ± 0.03 | 1.03 ± 0.029
14 | CN(C(=O)C(Cl)Cl)c1ccc(OC(=O)c2ccco2)cc1 [Diloxanide furoate] | 1.01 ± 0.039 | 1.04 ± 0.042
15 | Nc1ccn([C@H]2CC[C@@H](CO)O2)c(=O)n1 [Zalcitabine] | 0.965 ± 0.091 | 1.07 ± 0.025
16 | CN1CCN(CCCN2c3ccccc3Sc3ccc(C(F)(F)F)cc32)CC1 [Trifluoperazine dihydrochloride] | 0.728 ± 0.0074 | 0.71 ± 0.016
17 | CN(C)CCN1C(=O)c2ccccc2N(C)c2ccccc21 [Dibenzepine hydrochloride] | 0.778 ± 0.043 | 0.83 ± 0.042
18 | COc1ccc(OC)c(C(O)CNC(=O)CN)c1 (centres undefined) [Midodrine hydrochloride] | 1.02 ± 0.022 | 0.9977 ± 0.0095
19 | CC[C@H](C)[C@H](N)C1=N[C@H](C(=O)N[C@@H](CC(C)C)C(=O)N[C@H](CCC(=O)O)C(=O)N[C@H](C(=O)N[C@H]2CCCCNC(=O)[C@H](CC(N)=O)NC(=O)[C@@H](CC(=O)O)NC(=O)[C@H](Cc3cnc[nH]3)NC(=O)[C@@H](Cc3ccccc3)NC(=O)[C@H]([C@@H](C)CC)NC(=O)[C@@H](CCCN)NC2=O)[C@@H](C)CC)CS1 [Bacitracin] | 1.07 ± 0.076 | 1.03 ± 0.035
20 | Cc1c(N(C)C)c(=O)n(-c2ccccc2)n1C [Amidopyrine] | 0.945 ± 0.04 | 0.995 ± 0.063
21 | Oc1c(Cl)cc(Cl)c(Cl)c1Cc1c(O)c(Cl)cc(Cl)c1Cl [Hexachlorophene] | 0.463 ± 0.0083 | 0.558 ± 0.042

Row | Compound | normalised cell viability (treatment time: 3 days) | normalised cell viability (treatment time: 6 days)
22 | COc1ccc(/C=C/C(=O)Nc2ccccc2C(=O)O)cc1OC [Tranilast] | 0.96 ± 0.032 | 1.05 ± 0.054
23 | CCOC(=O)C1=C(COCCN)NC(C)=C(C(=O)OC)C1c1ccccc1Cl (centres undefined) [Amlodipine] | 0.92 ± 0.047 | 0.873 ± 0.033
24 | CN1[C@@H]2CC[C@H]1C[C@@H](OC(=O)c1c[nH]c3ccccc13)C2 [Tropisetron HCl] | 1.05 ± 0.12 | 1.24 ± 0.074
25 | Cc1cccc(C)c1OCC(C)N (centres undefined) [Mexiletine hydrochloride] | 0.978 ± 0.044 | 0.928 ± 0.043
26 | NC[C@@H]1O[C@H](O[C@H]2[C@@H](O)[C@H](O[C@@H]3[C@@H](O)[C@H](N)C[C@H](N)[C@H]3O[C@H]3O[C@H](CO)[C@@H](O)[C@H](O)[C@H]3N)O[C@@H]2CO)[C@H](N)[C@@H](O)[C@@H]1O [Paromomycin sulfate] | 1.028 ± 0.0087 | 1.11 ± 0.034
27 | COc1ccccc1OCC(O)CO (centres undefined) [Guaifenesin] | 1.02 ± 0.045 | 1.08 ± 0.23
28 | CC(=O)[C@H]1CC[C@H]2[C@@H]3C=CC4=CC(=O)CC[C@@]4(C)[C@@H]3CC[C@]12C [Dydrogesterone] | 1.07 ± 0.04 | 1.29 ± 0.038
29 | C[C@H]1O[C@@H](O[C@H]2[C@@H](O)C[C@H](O[C@H]3[C@@H](O)C[C@H](O[C@H]4CC[C@@]5(C)[C@H](CC[C@@H]6[C@@H]5C[C@@H](O)[C@]5(C)[C@@H](C7=CC(=O)OC7)CC[C@]65O)C4)O[C@@H]3C)O[C@@H]2C)C[C@H](O)[C@@H]1O [Digoxin] | 1.06 ± 0.036 | 1.07 ± 0.13
30 | COc1cc([S+](C)[O-])ccc1-c1nc2cccnc2[nH]1 (centres undefined) [Sulmazole] | 1.2 ± 0.33 | 1.1 ± 0.045
31 | O=C(OCC(O)CO)c1ccccc1Nc1ccnc2cc(Cl)ccc12 (centres undefined) [Glafenine hydrochloride] | 0.98 ± 0.07 | 1.04 ± 0.051
32 | CC(C(=O)O)c1ccc(-c2ccccc2)c(F)c1 (centres undefined) [Flurbiprofen] | 0.994 ± 0.027 | 1.07 ± 0.038
33 | CN(C)C(=O)C(CCN1CCC(O)(c2ccc(Cl)cc2)CC1)(c1ccccc1)c1ccccc1 [Loperamide hydrochloride] | 0.687 ± 0.041 | 0.67 ± 0.057
34 | CC(C(=O)O)c1ccc2c(c1)[nH]c1ccc(Cl)cc12 (centres undefined) [Carprofen] | 1.04 ± 0.11 | 1.04 ± 0.13
35 | CCCCc1cc2ccccc2c(OCCN(C)C)n1 [Dimethisoquin hydrochloride] | 1.04 ± 0.022 | 1.07 ± 0.1
36 | Cc1cccc(C)c1NC(=O)C(C)N (centres undefined) [Tocainide hydrochloride] | 1.06 ± 0.027 | 0.996 ± 0.018
37 | Cc1c(-c2ccccc2)oc2c(C(=O)OCCN3CCCCC3)cccc2c1=O [Flavoxate hydrochloride] | 0.969 ± 0.011 | 0.98 ± 0.014
38 | CN[C@@H]1[C@@H](O[C@H]2O[C@H](CO)[C@@H](N)[C@H](O)[C@H]2O)OC2C[C@@H](N)[C@@H](O[C@H]3[C@H](O)[C@@H](O)[C@H](N)C[C@@H]3N)OC2[C@@H]1O (some centres undefined) [Apramycin] | 1.03 ± 0.019 | 1.11 ± 0.049
39 | N[C@@H](C(=O)N[C@@H]1C(=O)N2C(C(=O)O)=C(Cl)CC[C@H]12)c1ccccc1 [Loracarbef] | 0.999 ± 0.14 | 1.05 ± 0.046
40 | Cc1onc(-c2ccccc2Cl)c1C(=O)N[C@@H]1C(=O)N2[C@@H]1SC(C)(C)[C@@H]2C(=O)O [Cloxacillin sodium salt] | 0.987 ± 0.02 | 1.05 ± 0.092
41 | C#Cc1cccc(Nc2ncnc3cc(OCCOC)c(OCCOC)cc23)c1 [Erlotinib] | 1.05 ± 0.016 | 0.915 ± 0.037
42 | N#Cc1ccc(C2CCCc3cncn32)cc1 (centres undefined) [Fadrozole hydrochloride] | 0.955 ± 0.11 | 0.949 ± 0.078

Row | Compound | normalised cell viability (treatment time: 3 days) | normalised cell viability (treatment time: 6 days)
43 | NS(=O)(=O)c1cc2c(cc1Cl)NC(C(Cl)Cl)NS2(=O)=O (centres undefined) [Trichlormethiazide] | 0.985 ± 0.016 | 1.05 ± 0.043
44 | CN[C@@H]1[C@H](O)[C@H](NC)[C@H]2O[C@@]3(O)C(=O)C[C@@H](C)O[C@H]3O[C@@H]2[C@H]1O [Spectinomycin dihydrochloride] | 1.06 ± 0.088 | 0.962 ± 0.049
45 | COc1ccccc1Oc1c(NS(=O)(=O)c2ccc(C(C)(C)C)cc2)nc(-c2ncccn2)nc1OCCO [Bosentan] | 1.03 ± 0.098 | 1.06 ± 0.023
46 | Nc1ccccc1S(N)(=O)=O [2-Aminobenzenesulfonamide] | 0.993 ± 0.013 | 1.03 ± 0.019
47 | CN(C)CCC=C1c2ccccc2COc2ccccc21 [Doxepin hydrochloride] | 0.9783 ± 0.0094 | 1.06 ± 0.05
48 | CC(C)[N+](C)(CCOC(=O)C1c2ccccc2Oc2ccccc21)C(C)C [Propantheline bromide] | 1.04 ± 0.011 | 0.94 ± 0.039
49 | O=C(N[C@H](CO)[C@H](O)c1ccc([N+](=O)[O-])cc1)C(Cl)Cl [Chloramphenicol] | 1 ± 0.018 | 0.883 ± 0.074
50 | CCC[C@@H]1C[C@@H](C(=O)N[C@@H]([C@H]2O[C@H](SC)[C@H](O)[C@@H](O)[C@H]2O)[C@H](C)Cl)N(C)C1 [Clindamycin hydrochloride] | 1.22 ± 0.034 | 1.1 ± 0.093
51 | C=C1/C(=C\C=C2/CCC[C@]3(C)[C@@H]([C@H](C)CCCC(C)C)CC[C@@H]23)C[C@@H](O)C[C@@H]1O [Alfacalcidol] | 0.751 ± 0.062 | 0.719 ± 0.094
52 | Cc1ccc2c(c1)c1c3n2CCNC3CCC1 (centres undefined) [Pirlindole mesylate] | 0.976 ± 0.023 | 0.9961 ± 0.0071
53 | CCN(CC)CCNC(=O)c1cc(Cl)c(N)cc1OC [Metoclopramide monohydrochloride] | 0.975 ± 0.033 | 1.03 ± 0.0081
54 | CN(C)C/C=C(/c1ccc(Br)cc1)c1cccnc1 [Zimelidine dihydrochloride monohydrate] | 1.08 ± 0.044 | 1.08 ± 0.056
55 | CC(C)(CO)C(O)C(=O)NCCCO (centres undefined) [Panthenol (D)] | 1.02 ± 0.013 | 1.01 ± 0.0086
56 | CCOc1ccc2ccccc2c1C(=O)N[C@@H]1C(=O)N2[C@@H]1SC(C)(C)[C@@H]2C(=O)O [Nafcillin sodium salt monohydrate] | 1.03 ± 0.013 | 1.03 ± 0.057
57 | Cn1cnc2c1c(=O)[nH]c(=O)n2C [Theobromine] | 0.856 ± 0.034 | 0.993 ± 0.02
58 | C1CCC(C(CC2CCCCN2)C2CCCCC2)CC1 (centres undefined) [Perhexiline maleate] | 0.135 ± 0.0029 | 0.125 ± 0.015
59 | CC(C)NCC(O)COc1ccc(CCOCC2CC2)cc1 (centres undefined) [Betaxolol hydrochloride] | 0.22 ± 0.0096 | 0.275 ± 0.015
60 | CC(=O)[C@@]1(O)CC[C@H]2[C@@H]3C[C@H](C)C4=CC(=O)C=C[C@]4(C)[C@@]3(F)[C@@H](O)C[C@@]21C [Fluorometholone] | 0.791 ± 0.042 | 0.942 ± 0.065
61 | CCc1nc(N)nc(N)c1-c1ccc(Cl)cc1 [Pyrimethamine] | 0.358 ± 0.011 | 0.374 ± 0.036
62 | COc1cc(C(=O)NCc2ccc(OCCN(C)C)cc2)cc(OC)c1OC [Trimethobenzamide hydrochloride] | 0.966 ± 0.061 | 0.97 ± 0.044

Reference: the supplement of paper PMC6609913
